B1: LINE1-mini (parent)
chain: GGCAGAGCUCAACACAGCGUGGCAAAGUGGCUGUGGCUAGACUGCC

Among the data in the RNAGym collection of RNA variant scans (doi:10.7554/elife.90254) are self-cleavage values, retold here.

Read counts are not given, so values of variants with three or more changes are uncertain.

The variants in the data set derive from B1. Briefly: self-cleavage, relative activity (ratio to wild type); higher = more cleavage; in vitro, sequencing; the parent is a self-cleaving ribozyme.
With GGCAGAGCUCAACAGAGCGUGGCAAAGUGGCUGUGGAUAGGCUCCC [C15G C37A A41G G44C], the self-cleavage worked out at 0.01. In the case of GGCAGAGCUCAACACAGCGUGGCAGAGUGGAUAUGGCUAGACUGCC [A25G C31A G33A], the self-cleavage stood at 0.02.

Take GGCAGAGCUCUACAAAGCGUGACAAAGUGGCUGUGGCUAGACUGCC [A11U C15A G22A]: the self-cleavage stood at 0.06.

Take GGCGGAGCUCAACACCGCGUGGCAAAGUGGCUGUGGCUAGACUGGC [A4G A16C C45G]: the self-cleavage was found to be 0.05. With GGCACAGCUCAACACAUCGUGGCAAAGUGGCUGUGGCUAGACUGAC [G5C G17U C45A], the self-cleavage stood at 0. Consider GGCAGAGCUGAACACAGCGUGGCAAAGUGCCUGUGGCUAGCUUGCC [C10G G30C A41C C42U], for which the self-cleavage was 0. Then GGCAGAUCUUAACACAGCGUGGCAAAGUGUCUGUGUCUAGACUGCC [G7U C10U G30U G36U], with 0.01. Take GGCAGAGCUGAACACAGCAUGGCAAAGUGGCUGUGGCUAGACCGCC [C10G G19A U43C]: the self-cleavage turned out to be 0.02. Take GGCAGAGCUCAAGACAGCGUGCCUAAGUGGCUGUGGCUAGACUGCC [C13G G22C A24U]: the self-cleavage was 0.04.

Turning to GGCAAAGCUCAACACAGCGUUGCAUAGUGGCUGUGGCUAGACUGCC [G5A G21U A25U], the self-cleavage worked out at 0.12. Regarding GGCAGAGCUCAACACGGCGUGGCAAAGUGGCUGUGGCAAGACUUCC [A16G U38A G44U], the self-cleavage came out at 0.25.

GGCAGAGCUCAACACAGCGUGGCAAAGCGGCUGUGACUGUACUGCC [U28C G36A A39G G40U]: the self-cleavage stood at 0.05. As to GGCAGAGCUCAAUACAGCGUGGAAAAGUGGCUGUGGCAAGACUGCC [C13U C23A U38A], the self-cleavage came out at 0.15.

Regarding UGCAGAGCUCAACACAGCGUGGCAAAGUGGCUGUGGCAAGACUCCC [G1U U38A G44C], the self-cleavage is 0.04. Regarding GGCAAAGCUCAACACAGCGUCGCAAAGUGGCUAUGGCUAGACUGGU [G5A G21C G33A C45G C46U], the self-cleavage was determined as 0.02.

For the variant GGCAGAGCUCAAAACAGCUAGGCGAAGUGGCUGUGGCUAGACUGCC [C13A G19U U20A A24G], the self-cleavage amounted to 0.1. For GGCAGAGCUGAACACUGCCUCGCAAAGGGGCUGUGGCUGGAGUCCC [C10G A16U G19C G21C U28G A39G C42G G44C], the self-cleavage came out at 0.01. For GGCAGCGCUCAACACAGCGUGGGAAAGUGGCUGUGGCUCGACUGCC [A6C C23G A39C], the self-cleavage was found to be 0.03. In the case of UGCAGAGCUCAACACAGCGUUGCAAAGUGGCUGUGGCUAGACUGCG [G1U G21U C46G], the self-cleavage amounted to 0.56. Take GUCAGAACUCAACACAGUGUGGCAAAGACGCUGUGGCUAGACUGCC [G2U G7A C18U U28A G29C]: the self-cleavage is 0.03.

Consider GGCAGCGCUCAUCCCAGCGUGGCAAAGUGGCUGCGGCUAGACUGCU [A6C A12U A14C U34C C46U], for which the self-cleavage was found to be 0.03. Regarding GGCAGAGCUCAACACAGCGUGGCAACGUGGCAAUGGCUCGACUGCC [A26C U32A G33A A39C], the self-cleavage came to 0.1. Turning to GCAAGAGCUUAACACAGCGUGGCAAAGUGACUGUGGCUAGACUGGC [G2C C3A C10U G30A C45G], the self-cleavage is 0.16.

With GGCAUAGCUCAAUACAGCGUGGCAAAGUGGCUGUGGCUAGACUGAC [G5U C13U C45A], the self-cleavage came out at 0.04. Turning to GGCAGAGCUCAACACAGCGUGGCAAGGUGGCUGUGGAUAGACUCCC [A26G C37A G44C], the self-cleavage was 0.05. Regarding GGCAGAGCUCAGCACAGCGUGGUAAAGUGGUUGCGGCUAGACUGCC [A12G C23U C31U U34C], the self-cleavage was 0.05.

Take GGCAGAUCUCAAAAUAGCGUGGCAAAGUGGCUGUGGCUAGACUGCC [G7U C13A C15U]: the self-cleavage was 0.26. Consider GGAAGAGCUUAACUCAGCGUGGCAAAGUGGUUGUGGCUAGACUGAC [C3A C10U A14U C31U C45A], for which the self-cleavage was found to be 0.05. Regarding GGCAUAGCGCAACACAGCGUGGCAAAGUGGUUAUGGCUAGACUGCC [G5U U9G C31U G33A], the self-cleavage amounted to 0.13. AGCAGAGCUCAACACAGCGUAGUAAUGUGGCUGUGGGUAGACUUAC [G1A G21A C23U A26U C37G G44U C45A]: the self-cleavage came out at 0.01.

On to GGUAGAGCUCAACACUGCGUGGCAUAGUAGCUGUGGCUAGACUGCC [C3U A16U A25U G29A], for which the self-cleavage amounted to 0.05.

Consider GGCAGAGCUACACACAGCGUGGCAAAGUGCCUGUGGCUAGACUGGC [C10A A11C G30C C45G], for which the self-cleavage worked out at 0.02. Then GGCAGAGCUAAACUCCGCGUGGCAAAGUGACUGUGCCUAGUCUGCC [C10A A14U A16C G30A G36C A41U], with 0.01; and GGCAGGGCUCAACGCAGCAUGGCAAAGUGGCUGUGGCUAUACUGCC [A6G A14G G19A G40U], with 0.17; and GGCAGAGCUCAACGCAGCGUGGCAAAGUGGCUGUGCCUAGAGUGCC [A14G G36C C42G], with 0.01. Then GGCCGAGCGCAACACAGCGUGGCAAAGUGGCUAUGGCUAGACUGCC [A4C U9G G33A], with 0.06; and GGCAGAGCUCAACACAGCGUGGUAUAGUGGCUGUGGGUAGACUUCC [C23U A25U C37G G44U], with 0.13; and GGCAGAGCACAACACAGAGCGGCAAUGUGGCUGUGGCUAGACUGCU [U9A C18A U20C A26U C46U], with 0.07. Consider GGGAGAGAUCAACACAGCGUGGCAAAGUGGCGGUGGCUAGACUUGC [C3G C8A U32G G44U C45G], for which the self-cleavage came to 0.52. Consider GGCAGAGCUCAAUACAGCGUGGCAAAGAGGAUGUGGCUAGACUGCA [C13U U28A C31A C46A], for which the self-cleavage turned out to be 0.25.

Consider GGCAGAGCUCAACAUAGCGUGGCAACGUGGCUGUGGCUAGCCUGCC [C15U A26C A41C], for which the self-cleavage stood at 0.06. Consider GGCAGAGCUCAACACAGCGUGUCAAAGUGGGUCUGGCUAGACUGCC [G22U C31G G33C], for which the self-cleavage was determined as 0.07. As for GGCAGAGCUCAACCCGGCGUGGCAAAGUGGCUGUGGCUAGAAUACC [A14C A16G C42A G44A], the self-cleavage was 0.03. As to GGCAGACAUCAACUCAGCGUGGCAAAGUGGCUGUGGCUAGACUGGC [G7C C8A A14U C45G], the self-cleavage is 0.22.

GGCAGCGAUCAACACAGCGUGGCAAAGUGGCUGUGGCGACACUGCC [A6C C8A U38G G40C]: the self-cleavage was determined as 0.04. GGCAGAGAUCAACACAACGUGGUAAAGUGGCGGUGGCUAGACUGCC [C8A G17A C23U U32G]: the self-cleavage is 1.06.

Turning to GGCAGAGCGCAACACAGCGUGGCAAAGUGGCUGUGGCUAGACUGGU [U9G C45G C46U], the self-cleavage came out at 0.11. As for GAUAGAGCUCAACACAGCGUGGCAAAGUGGCAGUGGCUAGACUGCC [G2A C3U U32A], the self-cleavage stood at 0.21. As to GGCAGAGCUCAAAAUAGCGUGGGAAAGUGGCUGUGGCUAGAAUGCC [C13A C15U C23G C42A], the self-cleavage was found to be 0.04. Consider GGAAGAGCUCAACACAGCGGGGCAAAGUGUAUGUGGCUAGACUGCC [C3A U20G G30U C31A], for which the self-cleavage came to 0.13.

For the variant GGCAGAGUUCAACACAGAGUGGCAAAGUGGCUCUGGCUAGACUACC [C8U C18A G33C G44A], the self-cleavage came to 0.08. As to GACGGAGCUCAACACAUCGUGGCAAAGUGGCUGUGGCUAGACUGCC [G2A A4G G17U], the self-cleavage was 0.48. Turning to AGCAGAGCUGAACACAGCGUGGCAAAAUGGCUGUGGCUAGCCUGCC [G1A C10G G27A A41C], the self-cleavage was 0. The value for GGCAGAUCUCAACACAGCGUGGCAAAGUCACUGUGGCUAGACUGCC [G7U G29C G30A] was 0.03. For GGCAGAGCUCAAGACAGCGUGGCAAAGUGGCUAUGGCUAGACUGCG [C13G G33A C46G], the self-cleavage is 0. For the variant GGCAGGGCUCAACACAGCGUUACAAAGUGGCUGUGGCUAGACUGCC [A6G G21U G22A], the self-cleavage came out at 0.04.
